# Experimental data from patent US7572603B2, “Alpha-2 adrenergic receptor polymorphisms” (University of Cincinnati, priority 2000, dated 2009).
# How the values were obtained:
# Del322-325 alpha-2CAR [1] = molecular target: T1, Del322-325 alpha-2CAR (Homo sapiens, UniProt P18825, DEL324-327/L239R/R446P/S401I); settings: CHO line expressing 1520 ± 27.6 fmol/mg
# T1 sequence (P18825 with tags, fused parts or gaps L239R/DEL324-327/S401I/R446P): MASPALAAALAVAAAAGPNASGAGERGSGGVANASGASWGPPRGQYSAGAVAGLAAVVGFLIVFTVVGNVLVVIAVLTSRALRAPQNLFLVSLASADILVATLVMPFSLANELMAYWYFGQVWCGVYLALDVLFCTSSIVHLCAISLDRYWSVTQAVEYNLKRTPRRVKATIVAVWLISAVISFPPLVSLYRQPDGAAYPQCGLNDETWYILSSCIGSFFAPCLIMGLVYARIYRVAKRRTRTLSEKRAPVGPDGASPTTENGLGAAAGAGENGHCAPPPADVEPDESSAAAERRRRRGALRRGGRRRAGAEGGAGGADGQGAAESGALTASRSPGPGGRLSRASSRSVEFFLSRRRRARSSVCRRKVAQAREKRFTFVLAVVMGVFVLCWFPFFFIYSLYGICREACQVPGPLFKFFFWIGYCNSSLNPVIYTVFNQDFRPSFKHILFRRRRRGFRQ
# Del301-303 alpha-2BAR [2] = molecular target: T2, Del301-303 alpha-2BAR (Homo sapiens, UniProt P18089, DEL307-309)
# T2 sequence (P18089 with tags, fused parts or gaps DEL307-309): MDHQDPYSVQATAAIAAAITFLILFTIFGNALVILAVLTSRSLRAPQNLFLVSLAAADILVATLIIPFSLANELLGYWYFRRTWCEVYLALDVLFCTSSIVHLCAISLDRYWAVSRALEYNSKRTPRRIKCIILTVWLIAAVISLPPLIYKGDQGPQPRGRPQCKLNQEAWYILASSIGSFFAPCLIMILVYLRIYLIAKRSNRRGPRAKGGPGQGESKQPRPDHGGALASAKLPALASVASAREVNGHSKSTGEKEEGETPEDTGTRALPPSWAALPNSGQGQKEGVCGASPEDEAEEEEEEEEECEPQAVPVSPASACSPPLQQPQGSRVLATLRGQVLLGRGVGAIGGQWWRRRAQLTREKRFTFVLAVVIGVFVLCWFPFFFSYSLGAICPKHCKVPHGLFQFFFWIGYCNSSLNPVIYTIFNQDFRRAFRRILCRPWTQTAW
# Del301-303 alpha-2BAR [3] = molecular target: T2, Del301-303 alpha-2BAR; experiment: biochemical
# Del322-325 alpha-2CAR [4] = molecular target: T1, Del322-325 alpha-2CAR; experiment: biochemical
EC50 (Del322-325 alpha-2CAR [1]; read-out: EC50 (nM) adenylyl cyclase inhibition),Compound,Max Inhibition (%) of adenylyl cyclase (Del322-325 alpha-2CAR [1]),"Submax inhibition % Ctrl (Del301-303 alpha-2BAR [2]; at the EC50 of control membranes, cells pretreated with media alone)",Max Inhibition of forskolin-stimulated adenylyl cyclase (Del301-303 alpha-2BAR [2]; receptor density 520±82 fmol/mg),EC50 (Del301-303 alpha-2BAR [3]),EC50 (Del322-325 alpha-2CAR [4])
4080 ± 2000 nM,CCN1CCc2nc(N)oc2CC1 [BHT-933],26.7 ± 2.40%,,,,
,N=C(N)N/N=C/c1c(Cl)cccc1Cl [guanabenz],30.0 ± 1.98%,,,,
,NC[C@H](O)c1ccc(O)c(O)c1 [norepinephrine],34.9 ± 0.887%,17.1±3.0%,23.4±2.2%,19.6 ± 5.5 nM,224 ± 70.7 nM
,Cc1cc(C(C)(C)C)c(O)c(C)c1CC1=NCCN1 [oxymetazoline],12.8 ± 1.40%,,,,

# Where two headings read alike, the source gives them in different places.
